The source gives no read counts; variants with many changes may rest on few reads.
B1: OR4K15 (parent)
chain: GUUAACGGUCAUAGGCCAUGGAAACUAGGAGCACCAUUUCGCUGCCAGUGAAGAAAUGAACAAAGAAAAUCUGGGCCAGGCAGGCAUCAAAAGAAAUAGUCUUGCGCUCAACCAGAAAGUCUGUAAUCAUUUUAAGGGUA

Variants of: B1
Assay: self-cleavage, relative activity (ratio to wild type); higher = more cleavage; in vitro, sequencing; the parent is a self-cleaving ribozyme

| Variant | self-cleavage |
| --- | --- |
| GUUAACGGUCAUAGGCCAUGGAAACUAGGAGCACCAUUUCGCUGCCAGUGGAGAAGUGAACAAAGAAAAUCUGGGCCAGGCAGGCAUCAAAAGAAAUAGUCUUGCGCUCAUCCAGAAAGUCUGUGAUCAUUUUAAGGGUA [A51G A56G A111U A125G] | 0.01 |
| GUUAACGGUCAUAGGCCAUGGAAACUAGGAGCACCAUUUCGCUGCCAGUGGGGAAAUGAACAAAGAAAAUCUGGGCCAGGCAGGCAUCAAAAGAGAUAGUCUUGCGCUCAGCCAGGAAGUCUGUAAUCAUUUUAAGGGAA [A51G A52G A95G A111G A116G U139A] | 0.03 |
| GUUAACGGUCAUAGGCCAUGGAAACUAGGAGCACCAUUUCGCUGCCAGUGGAGAAAUGAGCAAAGAAAAUCUGGGCCAGGCAGGCAUCAAAAGAAAUAGUCUUGCGCUUAACCAGAAAGUCUGUAAUCGUUUUAAGGGUA [A51G A60G C109U A129G] | 0.13 |
| GUUAACGGUCAUAGGCCAUGGAAACUAGGAGCACCAUUUCGCUGCCAGUGCAGAAAUGAACAAAGAAAAUCUGGGCCAGGCGGGCAUCAAAAGAAAUAGUCUUGCGCUCAACCAGAAGGUCUGUAGUCAUUUUAAGGGUA [A51C A82G A118G A126G] | 0.22 |
| GUUAACGGUCAUAGGCCAUGGAAACUAGGAGCACCAUUUCGCUGCCAGUGGAGAAAUGGACAAAGGAAAUCUGGGCCAGGCAGGCAUCAAAAGAAACAGUCUUGCGCUCAACCAGAAGGUCUGUAAUCAUUUUAAGGGUA [A51G A59G A66G U97C A118G] | 0.3 |
| GUUAACGGUCAUAGGCCAUGGAAACUAGGAGCACCAUUUCGCUGCCAGUGCAGAAAUGAACAAAGAGAAACUGGGCCAGGCAGGCAUCAAAAGAAAUAGUCUUGCGCUCAACCAGAAAGUCUGUAAUCAUUUUAAGGGUA [A51C A67G U70A] | 1.34 |
| GUUAACGGUCAUAGGCCAUGGAAACUAGGAGCACCAUUUCGCUGCCAGUGGAGAAGUGAACAAAGAAAAUCUGGGCCAGGCAGGCAUCAAAAGAAAUAGCCUUGCGCUCAACCAGAAAGUCUGUAAUCAUUUUAAGGGUA [A51G A56G U100C] | 2.76 |
| GUUAACGGUCAUAGGCCAUGGAAACUAGGAGCACCAUUUCGCUGCCAGUGGAGAAAUGGACAAAGAAAAUCUGGGCCAGGCAGGCAUCAAAAGAAGUAGUCUUGCGCUCGACCAGAAAGUCUGUAAUCAUUUUAAGGGUA [A51G A59G A96G A110G] | 0.15 |
| GUUAACGGUCAUAGGCCAUGGAAACUAGGAGCACCAUUUCGCUGCCAGUGGGGAAAUGAACAAAGAAAAUCUGGGCCAGGCAGGCAUCAAAAGAAUUAGUCUUGCGCUCAACCAGAAAGUCUGAAAUCAUUUUAAGGGUA [A51G A52G A96U U124A] | 0.96 |
| GUUAACGGUCAUAGGCCAUGGAAACUAGGAGCACCAUUUCGCUGCCAGUGGAGAAGUGAACAAAGGAAAUCUGGGCCAGGCAGGCAUCAAAAGAAAUAGUCUUGCGCUCAACCAGAAAGUCUGUAAUCAUUUUAAGGGUA [A51G A56G A66G] | 0.21 |
| GUUAACGGUCAUAGGCCAUGGAAACUAGGAGCACCAUUUCGCUGCCAGUGGAGAGAUGAACAAAGAAAAUCUGGGCCAGGCAGGCAUCAAAAGAAAUAGUCUUGCGCUCAACCAGAAAGUCUGUAACCAUUUUAAGGGUA [A51G A55G U127C] | 1.05 |
| GUUAACGGUCAUAGGCCAUGGAAACUAGGAGCACCAUUUCGCUGCCAGUGGAGAAAUGAACGAAGAAAAUCUGGGCCAGGCAGGCAUCAAAAGAAAUAGUCUUGCGCUCAACCAGAAUGUCUGUAAUCAUUUUAAGGGUA [A51G A62G A118U] | 0.11 |
| GUUAACGGUCAUAGGCCAUGGAAACUAGGAGCACCAUUUCGCUGCCAGUGGAGAAGUGAACAAAGAAAAUCUGGGCCAGGCAGGCAUCAAAAGGAAUAGUCUUGCGCUCAACCUGAAAGUCUGUAAUCAUUUUAGGGGUA [A51G A56G A94G A114U A135G] | 0.03 |
| GUUAACGGUCAUAGGCCAUGGAAACUAGGAGCACCAUUUCGCUGCCAGUGGAGAAAUGAACGAAGAAAAUCUGGGCCAGGCAGGCAUCAAAAGAAGUAGUCUUGCGCUCAACCAGAAAGUCUGUAAUCAUUUUAAGGGUA [A51G A62G A96G] | 1.76 |
| GUUAACGGUCAUAGGCCAUGGAAACUAGGAGCACCAUUUCGCUGCCAGUGGAGAAAUGAGCAAAGAAAAUCUGGGCCAGGCAGGCAUCAAAAGAAAUAGUCCUGCGCUCAACCAGAAAGUCUGUAAUCAUUUUAAGGGUA [A51G A60G U102C] | 1.9 |
| GUUAACGGUCAUAGGCCAUGGAAACUAGGAGCACCAUUUCGCUGCCAGUGGAGAAAUGGACAAAGAAAAUCUGGGCCAGGCAGGCAUCAAAAGAAAUAGUCUUGCGCUCAACCAGAAAGUCAGUAAUCAUUUUAAGGGUA [A51G A59G U122A] | 1.25 |
| GUUAACGGUCAUAGGCCAUGGAAACUAGGAGCACCAUUUCGCUGCCAGUGGAGUAAUGAACAAAGAAAAUCCGGGCCAGGCAGGCAUCAAAAGAAAUAGUCUUGCGCUCAACCAGAAAGUCUGUAAUCAUUUUAAGGGUA [A51G A54U U72C] | 0.34 |
| GUUAACGGUCAUAGGCCAUGGAAACUAGGAGCACCAUUUCGCUGCCAGUGGGGAAGUGAACAAAGAGAAUCAGGGCCAGGCAGGCAUCAAAAGAAAUAGUCUUGCGCUCAACCAGAAAGUCUGUAAUCAUUUUAAGGGUA [A51G A52G A56G A67G U72A] | 0 |
| GUUAACGGUCAUAGGCCAUGGAAACUAGGAGCACCAUUUCGCUGCCAGUUAAGAAAUGAACGAAGAAAUUCUGGGCCAGGCAGGCAUCGAAAGAAAUAGUCUUGCGCUCAACCAGAAAGUCCGUAAUCAUUUUAAGGGUA [G50U A62G A69U A89G U122C] | 1.98 |
| GUUAACGGUCAUAGGCCAUGGAAACUAGGAGCACCAUUUCGCUGCCAGUCAAGAAAUGAACAAGGAAAAUCUGGGCCAGGCAAGCAUCAAAAGAAAUAGUCUUGCGCUCAACCAGAAAGUCUGUAAUCAUCUUAAGGGUA [G50C A64G G83A U131C] | 2.28 |
| GUUAACGGUCAUAGGCCAUGGAAACUAGGAGCACCAUUUCGCUGCCAGUGGAGAGAUGAACAAAGAAAAUCUGGGCCAGGCAGGCAUCAAAAGAAGUAGUCUUGCGCUCAACCAGAAAGUCUGUAAUCAUUUUAAGGGUA [A51G A55G A96G] | 0.84 |

From the RNAGym collection of RNA variant scans (doi:10.7554/elife.90254)
